The list shows a part of the results.
Biological target: T1, OsWOX13 (Oryza sativa, UniProt Q5QMM3 1-267)
T1 sequence: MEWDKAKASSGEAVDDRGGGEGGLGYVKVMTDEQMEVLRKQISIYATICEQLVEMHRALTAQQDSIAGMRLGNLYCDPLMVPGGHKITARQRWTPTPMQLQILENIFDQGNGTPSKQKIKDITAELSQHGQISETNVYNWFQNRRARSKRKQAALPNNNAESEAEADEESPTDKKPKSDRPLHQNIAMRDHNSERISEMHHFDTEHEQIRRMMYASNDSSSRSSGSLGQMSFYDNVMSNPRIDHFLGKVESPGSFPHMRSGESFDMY
Assay: protein-binding microarray (RPBM); PBS, 2% BSA, 51.3 ng/ul salmon testes DNA, 50 uM zinc acetate, 200 nM TF, 25 C, 1 h; high values mean tight binding
Conditions: protein: recombinant; tags: N-terminal polyhistidine and DsRed monomer fusion (pET32a); label: CyDye5-dUTP incorporated in the synthesized complementary strand; 3' TTTTT single-stranded linker to array surface; dsDNA, one strand shown
Procedure, shortened: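 Per-feature fluorescence intensity (arbitrary units), read on an Axon 4000B scanner, is the binding signal. Transcription factors carrying an N-terminal polyhistidine tag and DsRed fusion were expressed in E. coli BL21-CodonPlus and purified on Ni–NTA. A custom Agilent array, made double-stranded by primer extension with Cy5-dUTP and blocked with 2% BSA, was incubated with 200 nM protein in PBS, 2% BSA, salmon testes DNA and 50 µM zinc acetate at 25 °C for 1 h and then washed.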

| Sequence | binding signal |
| --- | --- |
| TTTGTAAATTGAGTGACCCGTTATATTTGGTATTTCAGTTCGGAGTCACCTAGTGCAG | 24100 fluorescence intensity (a.u.) |
| TATAAATTAAAATTTGGCTTATAACCCCAAGCATAAACCTCGGAGTCACCTAGTGCAG | 21000 fluorescence intensity (a.u.) |
| TTTTAATTTTCTTAATCAAGCCGACCGGGGTTAATGCTGCCGGAGTCACCTAGTGCAG | 28100 fluorescence intensity (a.u.) |
| GTGATTGGCTTTGAGTACGATCATCAGATTGTATTGTTACCGGAGTCACCTAGTGCAG | 45000 fluorescence intensity (a.u.) |
| ATTTTAAATTTACAATAAAATCAATAAGATCAAAGTGAAACGGAGTCACCTAGTGCAG | 3630 fluorescence intensity (a.u.) |
| TCGGAGATTAGCACACAAAGACTAGCACACAGCAAGGCCCCGGAGTCACCTAGTGCAG | 3230 fluorescence intensity (a.u.) |
| AACCATCCATGATTAGCGATTGATACGATGACGTTTGGGTCGGAGTCACCTAGTGCAG | 25600 fluorescence intensity (a.u.) |
| TAAGTGGAGTAATTAGCTAAATAATCTATACTAGTAACCACGGAGTCACCTAGTGCAG | 4730 fluorescence intensity (a.u.) |
| ATTAAAATATAATAAATTTGATATTAAGATTTTACCTGTACGGAGTCACCTAGTGCAG | 6670 fluorescence intensity (a.u.) |
| AGAACAAATATAATTTAACACACAAACTTCATACTCCTATCGGAGTCACCTAGTGCAG | 4240 fluorescence intensity (a.u.) |
| CAATTATCAATCAGTCTGAAATCTTGCATTTGCATTTGCACGGAGTCACCTAGTGCAG | 22400 fluorescence intensity (a.u.) |
| ATCACGAATTTGTCAACATGGCCAATCAAGCAATATTCAGCGGAGTCACCTAGTGCAG | 6060 fluorescence intensity (a.u.) |
| AAGAATAATTATACCGAGTACATATTAATCTGTGCAGCCTCGGAGTCACCTAGTGCAG | 14300 fluorescence intensity (a.u.) |
| TGCTAATTTTATTGTTAATTTAACTCGTATCTTGTGGCAACGGAGTCACCTAGTGCAG | 25900 fluorescence intensity (a.u.) |
| CATCAATCATGTAAAATAGATGTTACTAGATTTGTCATTACGGAGTCACCTAGTGCAG | 43300 fluorescence intensity (a.u.) |
| CTAAACACGTCCTATCATGTCACGTAGATAATATGACACGCGGAGTCACCTAGTGCAG | 4110 fluorescence intensity (a.u.) |
| TGCGTGTTTTATGATTACCTATGTTTCTGTTGTGTTTTAACGGAGTCACCTAGTGCAG | 4120 fluorescence intensity (a.u.) |
| TAAAACATTTAATTGTTAATCGTATCCCTACCCAACATTCCGGAGTCACCTAGTGCAG | 12300 fluorescence intensity (a.u.) |
| GCCGAATTGATAGCTGTCTTGTATTTCTTATGCTGATGGGCGGAGTCACCTAGTGCAG | 29800 fluorescence intensity (a.u.) |
| ACCATGACTGCAAAATTTCCAAGTTTCTCGCTAGTTTAAACGGAGTCACCTAGTGCAG | 5680 fluorescence intensity (a.u.) |
| AGGCACAACATCCCCACATGATTGGTGCAGGATCGTAGCGCGGAGTCACCTAGTGCAG | 3720 fluorescence intensity (a.u.) |

| Sequence | binding signal |
| --- | --- |
| CTAACGTTAGCACATAATTACTCTGTTCTATAATGTACTCCGGAGTCACCTAGTGCAG | 6420 fluorescence intensity (a.u.) |
| TAGAAATTAATTTCATATAGTAAACTAAAGTAGCTTTATTCGGAGTCACCTAGTGCAG | 17000 fluorescence intensity (a.u.) |
| AAAACTTTATGACTGTAATTAGCTTTGAACCTGTTCAGAACGGAGTCACCTAGTGCAG | 10300 fluorescence intensity (a.u.) |
| CTCACTAATTATCTCTGAAGAAACATGACTTATTATCACTCGGAGTCACCTAGTGCAG | 28500 fluorescence intensity (a.u.) |
| GATAATTGACAACATCATATGTAGTATATTCTACCAAAACCGGAGTCACCTAGTGCAG | 44500 fluorescence intensity (a.u.) |
| CCAAATTAGACATCACGCATTTATCGAGTGGTTCCCCTGGCGGAGTCACCTAGTGCAG | 32100 fluorescence intensity (a.u.) |
| AAGGTTTAATTAAGGTGAAATTTACCGTGGGAATTTGTTTCGGAGTCACCTAGTGCAG | 9500 fluorescence intensity (a.u.) |
| AGGTGATTTTACAAAACCAAACTAAAATATAACACAAGCTCGGAGTCACCTAGTGCAG | 3640 fluorescence intensity (a.u.) |
| TAATGATTGGGACAGGCTCTCTCAATGTATCGTCTAATTCCGGAGTCACCTAGTGCAG | 47300 fluorescence intensity (a.u.) |
| CCTAAATTATTCTAAAATTAAAATGTTAATGGGGAAGTATCGGAGTCACCTAGTGCAG | 19900 fluorescence intensity (a.u.) |
| ATATATATATATATATATATATATATATATATGCGCAGAGCGGAGTCACCTAGTGCAG | 26600 fluorescence intensity (a.u.) |
| ACAGCATCCAATTAACTTTAAAATGTACGGATGAATAACACGGAGTCACCTAGTGCAG | 9440 fluorescence intensity (a.u.) |
| TAAATTAACCAAAATTAGCCTCCTAATCCAGCTATAAGAACGGAGTCACCTAGTGCAG | 10900 fluorescence intensity (a.u.) |
| AAAATTATTTAAAATTTTAACATATTTTCATTGAATTTGGCGGAGTCACCTAGTGCAG | 14300 fluorescence intensity (a.u.) |
| AAACAGACAAACTACACTAATTGTGATGACTCTGGATTTTCGGAGTCACCTAGTGCAG | 8340 fluorescence intensity (a.u.) |
| ATCACACAATCAATAATACACTCGGCGGATTCATCCCCGGCGGAGTCACCTAGTGCAG | 4720 fluorescence intensity (a.u.) |
| GTTAGCTGATTGGTTTCTATTGGATTATATTGTTTTATTACGGAGTCACCTAGTGCAG | 19000 fluorescence intensity (a.u.) |
| AGGGTTGACAGGGGCATTTTCGCATTTTATGAAAATACTGCGGAGTCACCTAGTGCAG | 5170 fluorescence intensity (a.u.) |
| TGAAAATTTTGATACTAGATAGGATCGGTATCATTTTGGTCGGAGTCACCTAGTGCAG | 5360 fluorescence intensity (a.u.) |
| TCTGATTATAGAAAAGTTGCAGCTGCGAGAAAATTCTCTTCGGAGTCACCTAGTGCAG | 14100 fluorescence intensity (a.u.) |
| AATAAAATTTAGAATGAAATTTAAATTCTAGAAGTTGTTACGGAGTCACCTAGTGCAG | 8330 fluorescence intensity (a.u.) |

Source: article PMC7819943, “Rice protein-binding microarrays: a tool to detect cis-acting elements near promoter regions in rice”
